Data taken from PubChem BioAssay AID651820 (National Center for Advancing Translational Sciences (NCATS), 2012).
In all, about 340,000 compounds went through this assay and about 12,000 (3.5%) were called active. The shares of active, inactive and inconclusive entries below differ from those in the screen. Calls come from the whole dose curve; as a rule, active = well fitted inhibition curve with a large enough effect; inconclusive = small, poorly fitted or top-dose-only effect, or another doubt; inactive = no such curve, though single readings can be large or run the other way. Potencies of inconclusive entries are left out as doubtful fits.

Test: qHTS Assay for Inhibitors of Hepatitis C Virus (HCV)
Conditions: Huh7.5.1 HCVcc-Cre (HCVcc is cell-culture hepatitis C virus) infection, luciferase reporter, 44 h; activity change, negative = inhibition: at 41.8 µM (top of the series)
Outline: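 HCVcc-Cre virus at an moi near 0.5 was added right after compound to cells cultured 4 h from seeding (1,000 cells/well). Luciferase activity was determined 44 h later, 15 min after substrate addition at RT.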
% is set by controls: 0 for no effect and ±100 for the full control effect; potency is the fitted concentration of half-maximal effect; tags give direction and shape of the fitted curve.

| Structure (SMILES) | Potency | activity change, negative = inhibition |
| --- | --- | --- |
| N#Cc1ccc(Oc2ccc(-c3cnc4ccccc4n3)cc2)cc1C#N | inconclusive [inhibitor, partial curve] | – |
| Cc1cccc(C)c1OCC(O)Cn1c2ccccc2c2ccccc21 (stereo not given) | inconclusive [inhibitor, partial curve] | – |
| C#CCSc1nc2sc3c(c2c(=O)n1C)CCC3 | inconclusive [inhibitor, single point] | – |
| Cc1ccc(S(=O)(=O)N2CCN(C(=O)COC(=O)Cc3cccc(C(F)(F)F)c3)CC2)c(C)c1 | inconclusive [inhibitor, single point] | – |
| S=c1nc(C2CCCCC2)[nH]c2ccccc12 | – | inactive: 14.4% |
| COC(=O)c1c(C(=O)OC)c(-c2ccc(C)cc2)n2c1CS(=O)(=O)C2 | – | inactive: -13.9% |
| CCCN(CC(=O)Nc1ccccc1OC)CC(=O)c1c(N)n(Cc2ccccc2)c(=O)n(C)c1=O | inconclusive [inhibitor, partial curve] | – |
| CCOC(=O)c1cc(-c2csc(N/N=C/c3ccccc3Cl)n2)on1 | inconclusive [inhibitor, partial curve] | – |
| O=c1c2c3c(sc2nc2n1CCCS2)CCCC3 | – | inactive: -19.8% |
| O=C(NC(Cc1c[nH]c2ccccc12)C(=O)N/N=C/c1cccc2ccccc12)c1cccs1 (stereo not given) | inconclusive [inhibitor, single point] | – |
| O=C(CCn1c2c(c3ccccc31)CCCC2)NNC(=O)c1ccc(Cl)c([N+](=O)[O-])c1 | active: 10 µM | – |
| CCN(Cc1ccccc1)C(=O)CCc1nnc(CCCc2ccccc2)o1 | – | inactive: 0.621% |
| CC(C)C(=O)Nc1sc2c(c1C#N)CCCCC2 | inconclusive [inhibitor, full curve, poor fit] | – |
| O=c1[nH]c(=O)n(Cc2ccccc2)c(O)c1C=NCCN1CCOCC1 | – | inactive: 7.88% |
| N/C(Cc1ccc([N+](=O)[O-])cc1)=N\OC(=O)c1ccc(Br)cc1 | – | inactive: 6.93% |
| Cc1cc(NC(=O)NC2(C(F)(F)F)Oc3ccc(Cl)cc3O2)no1 (stereo not given) | inconclusive [inhibitor, partial curve] | – |
| NNc1ncnc2c1cnn2-c1ccccc1 | inconclusive [inhibitor, single point] | – |
| CN1CCc2ccc(NC(=O)c3ccc(C(F)(F)F)cc3)cc2C1 | inconclusive [inhibitor, single point] | – |
| COc1cc(C(=O)NCc2cccc3ccccc23)cc(Cl)c1OC | inconclusive [inhibitor, partial curve, poor fit] | – |
| Cc1ccc(N=C2NC(=O)/C(=C/C=C/c3ccco3)S2)cc1C | inconclusive [inhibitor, single point] | – |
| O=C(N/N=C/c1cccc2ccccc12)c1cccnc1 | – | inactive: 6.59% |
| CCCCN(C(=O)c1nn(C)c(=O)c2ccccc12)c1c(N)n(CC(C)C)c(=O)[nH]c1=O | – | inactive: 2.65% |

| Structure (SMILES) | Potency | activity change, negative = inhibition |
| --- | --- | --- |
| CCOC(=O)c1c(C)[nH]c(C(=O)COC(=O)C2CC2)c1C | inconclusive [inhibitor, single point] | – |
| COC(=O)C1=C(c2ccccc2)C[C@@H]2CC[C@H]1N2C(=O)NCc1ccc(C(F)(F)F)cc1 | inconclusive [inhibitor, single point] | – |
| CCOc1ccc(CN(CCCl)CCCl)cc1C(=O)OC | inconclusive [inhibitor, single point] | – |
| COC(=O)c1c(NC(=O)CC2SCC(C(=O)OC)NC2=O)sc2c1CCCC2 (stereo not given) | inconclusive [inhibitor, single point] | – |
| COc1ccccc1Nc1nc(N(C)c2ccccc2)nc(N)c1[N+](=O)[O-] | inconclusive [inhibitor, full curve] | – |
| CC1CCN(CC(=O)Nc2ccc(S(=O)(=O)N3CCC(C)CC3)cc2)CC1 | inconclusive [inhibitor, single point] | – |
| CCOC(=O)N1CCN(C(=O)CSc2nc(=O)n3cc(C)ccc3n2)CC1 | inconclusive [inhibitor, single point] | – |
| Cc1sc(=NC(=O)c2ccco2)n(C)c1-c1ccc(Cl)cc1 | inconclusive [inhibitor, full curve, poor fit] | – |
| CCOC(=O)c1c2c3c(cccc3n(C)c1=O)C(=O)c1ccccc1-2 | inconclusive [inhibitor, partial curve] | – |
| CC1=Nc2cc(C(=O)N3CCC4(CC3)OCCO4)ccc2Sc2ccc(Cl)cc21 | inconclusive [inhibitor, single point] | – |
| COC(=O)c1c(-c2ccc(OC)cc2)oc2ccccc12 | inconclusive [inhibitor, single point] | – |
| O=C(Nc1nc2c(s1)CN(Cc1ccccc1)CC2)c1cccc(S(=O)(=O)N2CCc3ccccc32)c1 | inconclusive [inhibitor, partial curve] | – |
| CCOc1ccccc1OCC(=O)Nc1ccc(Cl)cc1C(=O)c1ccccc1 | inconclusive [inhibitor, single point] | – |
| CCc1nc2sc(C(C)=O)c(N)c2c2c1CCCC2 | inconclusive [inhibitor, partial curve] | – |
| Cc1cc([N+](=O)[O-])nn1Cc1ccc(C(=O)N/N=C/c2ccc(N(C)C)cc2)cc1 | inconclusive [inhibitor, single point] | – |
| CCN1CCN(c2cc(C)nc(-c3ccccc3O)n2)CC1 | inconclusive [inhibitor, single point] | – |
| COc1cccc(C(=O)/C=C/Nc2ccc(S(=O)(=O)Nc3cnc4ccccc4n3)cc2)c1 | – | inactive: -0.0737% |
| CCN(Cc1ccccc1)C(=O)c1ccc(C(=O)N(CC)Cc2ccccc2)cc1 | inconclusive [inhibitor, single point] | – |
| CC(/C=C/c1ccccc1)=N\NC(=O)c1ccc2c(c1)OCCO2 | inconclusive [inhibitor, single point] | – |
| S=C(Nc1ccc2[nH]ccc2c1)NC1CCCCC1 | inconclusive [inhibitor, single point] | – |
| CCOc1ccc(-c2nc(CN(Cc3ccccc3)C[C@@H]3CCC(=O)N3)c(C)o2)cc1 | inconclusive [inhibitor, full curve, poor fit] | – |
| O=c1c2[nH]c3ccc(F)cc3c2nc2n1CCCS2 | inconclusive [inhibitor, single point] | – |

| Structure (SMILES) | Potency | activity change, negative = inhibition |
| --- | --- | --- |
| COc1ccc(CC2S/C(=N/N=C/c3ccc(O)cc3)NC2=O)cc1 (stereo not given) | inconclusive [inhibitor, single point] | – |
| O=C(NC1CCCCC1)N1CCC(n2c(=O)[nH]c3ccccc32)CC1 | inconclusive [inhibitor, single point] | – |
| Cc1cccc(CCNC(=O)c2cccc3c2C(=O)N(C2CCCCC2)C3)c1 | inconclusive [inhibitor, single point] | – |
| CCN1CCN(c2ccc(S(=O)(=O)N3CCCCC3)cc2NC(=O)CCNC(C)=O)CC1 | – | inactive: -0.225% |
| COC(=O)CN(c1nc(C)c(Br)c(OC)n1)S(=O)(=O)c1ccccc1 | inconclusive [inhibitor, partial curve] | – |
| COc1cccc(/C=N/Nc2ccc(S(=O)(=O)Nc3ccccc3C(=O)O)cc2[N+](=O)[O-])c1O | – | inactive: 15.6% |
| Cc1cc(Cl)ccc1OCCCC(=O)NCCN1C(=O)S/C(=C\c2cccnc2)C1=O | inconclusive [inhibitor, single point] | – |
| CC(C)(C)OC(=O)CNC(=O)c1[nH]cnc1C(=O)NCCCCCN | – | inactive: 11.6% |
| CC1Oc2ccccc2C=C1/C=N/NC(=O)c1ccccc1 (stereo not given) | inconclusive [inhibitor, single point] | – |
| Cc1c(Cl)c([N+](=O)[O-])nn1CC(=O)NC12CC3CC(CC(C3)C1)C2 | – | inactive: -4.53% |
| O=C(NN=Cc1ccc(OC(F)F)cc1)c1ccc(NS(=O)(=O)c2cccs2)cc1 | inconclusive [inhibitor, partial curve] | – |
| COc1ccc([C@H]2[C@H](C(=O)OC(C)(C)C)N3N=Cc4ccccc4C3C23C(=O)c2ccccc2C3=O)cc1OC (stereo not given in full) | inconclusive [inhibitor, single point] | – |
| O=C(Nc1ccc(C#Cc2ccccc2)cc1)C1CC1 | inconclusive [inhibitor, single point] | – |
| Nc1c(N2CCCC2)cc(Cl)c2nonc12 | inconclusive [inhibitor, single point] | – |
| CN(c1ccc(F)cc1)S(=O)(=O)c1ccc(Cl)c(C(=O)NCC2(N3CCOCC3)CCCCC2)c1 | active: 11.2 µM | – |
| CCC(=O)Nc1cc(-c2nn(C)c(=O)c3ccccc23)ccc1N1CCOCC1 | inconclusive [inhibitor, single point] | – |
| CC(C)[C@H](NC(=O)c1ccccc1Cl)C(=O)OCc1cc([N+](=O)[O-])cc2c1OCOC2 | inconclusive [inhibitor, single point] | – |
| CCOC(=O)c1c(NC(=O)CSc2nnc(-c3ccc(C)cc3)o2)sc(C(C)=O)c1C | inconclusive [inhibitor, partial curve] | – |
| CCCCn1c(N)c(N(CC(C)C)C(=O)C2CC(=O)N(Cc3ccccc3)C2)c(=O)[nH]c1=O (stereo not given) | inconclusive [inhibitor, single point] | – |
| CCCC(=O)Nc1cccc(NC(=O)c2ccc3c(c2)OCCO3)c1 | inconclusive [inhibitor, partial curve] | – |
| CCN1CCN(Cc2ccc(NC(=O)c3cc(NC(=O)c4cnnc5ccccc45)cc(OC)c3)cc2C(F)(F)F)CC1 | inconclusive [inhibitor, partial curve] | – |
